Among all 310,000 compounds or so, about 2,200 (0.71%) showed an effect of 50% or more. The effect is printed as a negative number. Some of the results follow.

The target of this assay is human ether-à-go-go-related gene (hERG) potassium channel (human, UniProt Q12809). Kind of assay: primary screen, population patch clamp on CHO cells stably expressing hERG.
Chain of human ether-à-go-go-related gene (hERG) potassium channel (Q12809 whole entry, looked up): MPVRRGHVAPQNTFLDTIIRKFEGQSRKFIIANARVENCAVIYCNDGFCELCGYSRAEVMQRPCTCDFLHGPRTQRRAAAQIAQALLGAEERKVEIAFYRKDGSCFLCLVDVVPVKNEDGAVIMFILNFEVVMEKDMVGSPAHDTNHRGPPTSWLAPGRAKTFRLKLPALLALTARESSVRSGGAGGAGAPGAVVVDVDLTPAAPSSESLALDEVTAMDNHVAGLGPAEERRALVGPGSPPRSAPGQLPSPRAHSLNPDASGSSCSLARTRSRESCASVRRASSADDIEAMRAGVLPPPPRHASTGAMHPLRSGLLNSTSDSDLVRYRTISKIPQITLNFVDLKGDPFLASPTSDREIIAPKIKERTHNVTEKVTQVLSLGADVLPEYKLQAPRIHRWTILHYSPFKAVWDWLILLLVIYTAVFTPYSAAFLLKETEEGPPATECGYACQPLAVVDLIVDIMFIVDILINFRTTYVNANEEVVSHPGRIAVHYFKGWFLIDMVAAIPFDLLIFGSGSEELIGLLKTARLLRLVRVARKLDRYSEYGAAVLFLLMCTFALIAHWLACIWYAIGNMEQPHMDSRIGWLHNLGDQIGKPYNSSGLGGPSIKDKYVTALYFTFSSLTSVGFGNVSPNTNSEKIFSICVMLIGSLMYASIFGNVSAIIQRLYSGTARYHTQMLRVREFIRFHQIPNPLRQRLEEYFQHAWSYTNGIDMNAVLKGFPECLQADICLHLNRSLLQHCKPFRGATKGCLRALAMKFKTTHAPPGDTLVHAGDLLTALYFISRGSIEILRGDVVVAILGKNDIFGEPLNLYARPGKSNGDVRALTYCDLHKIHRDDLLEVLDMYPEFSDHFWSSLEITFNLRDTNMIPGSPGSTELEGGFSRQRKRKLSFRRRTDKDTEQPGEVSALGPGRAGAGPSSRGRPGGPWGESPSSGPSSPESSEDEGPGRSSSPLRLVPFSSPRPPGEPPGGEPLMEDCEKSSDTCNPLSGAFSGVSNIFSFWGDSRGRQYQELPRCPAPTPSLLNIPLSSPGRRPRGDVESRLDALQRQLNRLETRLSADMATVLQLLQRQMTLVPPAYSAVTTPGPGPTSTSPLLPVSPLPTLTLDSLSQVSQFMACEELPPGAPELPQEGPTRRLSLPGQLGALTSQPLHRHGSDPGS
Take `CCn1c2ccccc2c2cc(NC(=O)CN(C)CC(=O)Nc3ccc(N4CCOCC4)cc3)ccc21`: the “hERG current change (%, negative = inhibition) at 1uM” value is 13.8%. To `CCn1c(=O)c2cc(S(=O)(=O)NCc3ccccc3)ccc2n(CC)c1=O` belongs 12%. To `CCOC(=O)c1ccc(NC(=S)N2CCCC2)cc1` belongs 13%.

Consider `CC(=O)NS(=O)(=O)c1ccc(NC(=O)COc2ccc(C(=O)c3ccccc3)cc2)cc1`, for which the “hERG current change (%, negative = inhibition) at 1uM” value was 17.6%. To `COc1ccc(S(=O)(=O)N(C)c2ccc(C(=O)NCC3CCCO3)cc2)cc1` (stereo not drawn) belongs 4.95%.

With `COc1ccccc1NC(=O)C(=O)NCC1CCCN1S(=O)(=O)c1cccs1` (stereo not drawn), the “hERG current change (%, negative = inhibition) at 1uM” value is on record as 5.9%. `COc1cc(NC(=O)COc2ccc(-n3cnnn3)cc2)c(OC)cc1Cl`: the “hERG current change (%, negative = inhibition) at 1uM” value is listed as -1.21%. The value for `Cn1c(N2CCOCC2)c(/C=N/O)c2ccccc21` was -10.5%; that for `COc1cc(C(=O)N(Cc2ccc(C)o2)C2CCS(=O)(=O)C2)cc(OC)c1OC` (stereo not drawn) was 9.59%.

`OCCOCCNc1ncnc2c1c(-c1ccccc1)cn2-c1ccccc1`: the “hERG current change (%, negative = inhibition) at 1uM” value was -10.8%.

As to `COC(=O)[C@]1(CC(C)C)N[C@H](c2ccc(-c3ccc(OC)cc3)cc2)[C@@H]2C(=O)N(C)C(=O)[C@@H]21.O=C(O)C(F)(F)F`, the “hERG current change (%, negative = inhibition) at 1uM” value is on record as 1.8%. The value for `Cc1ccc(S(=O)(=O)N2CCN(C(=O)COC(=O)/C=C/c3ccccc3F)CC2)c(C)c1` was 19.2%. On to `COc1ccc(N(CC(O)CN2CCCCC2)S(=O)(=O)c2ccc(C)cc2)cc1` (stereo not drawn), for which the “hERG current change (%, negative = inhibition) at 1uM” value is recorded as -82.9%. With `c1csc(CNc2ncnc3nc[nH]c23)c1`, the “hERG current change (%, negative = inhibition) at 1uM” value came to 2.53%. With `COc1ccccc1N1CCN(C(=O)c2ccc(CN3CCOCC3)cc2)CC1`, the “hERG current change (%, negative = inhibition) at 1uM” value is listed as 13.1%.

`CCCCCNC(=O)c1ccc2c(=O)n(CC3CCCO3)c(=S)[nH]c2c1` (stereo not drawn): the “hERG current change (%, negative = inhibition) at 1uM” value was determined as 9.19%. `CCCCCn1c(=O)[nH]c2cc(C(=O)N3CCN(c4ccc(C(C)=O)cc4)CC3)ccc2c1=O`: the “hERG current change (%, negative = inhibition) at 1uM” value is on record as -2.5%.

On to `O=C(NC1CCCC1)C(c1ccccn1)N(C(=O)c1csnn1)C1CCCC1` (stereo not drawn), for which the “hERG current change (%, negative = inhibition) at 1uM” value came to 12.1%. In the case of `O=C(NCc1ccco1)C1CCCN(S(=O)(=O)c2cccc3cccnc23)C1` (stereo not drawn), the “hERG current change (%, negative = inhibition) at 1uM” value turned out to be 9.04%.

Consider `Cc1ccc(S(=O)(=O)N2CCN(c3ccccc3)CC2)cc1C`, for which the “hERG current change (%, negative = inhibition) at 1uM” value turned out to be 12.5%. With `COc1ccccc1C(=O)N1CCN(S(=O)(=O)Cc2ccccc2)CC1`, the “hERG current change (%, negative = inhibition) at 1uM” value came to 10.1%. To `Cc1ccc(CC(=O)Nc2ccc(S(=O)(=O)N3CCOCC3)cc2)cc1C` belongs 14.5%. Take `COCCNc1nc2c(c(=O)n(Cc3ccc(OC)cc3)c(=O)n2C)n1C`: the “hERG current change (%, negative = inhibition) at 1uM” value worked out at 5.03%.

As for `Oc1ccccc1-c1nnc(COc2ccccc2)o1`, the “hERG current change (%, negative = inhibition) at 1uM” value turned out to be 6.79%. For `COc1ccc(NC(=O)CCNS(=O)(=O)c2cc(Br)cnc2N)cc1OC`, the “hERG current change (%, negative = inhibition) at 1uM” value is 19.3%. The value for `O=C(CCn1nnc2ccccc21)OCC(=O)c1ccc([N+](=O)[O-])cc1` was 8.27%; that for `COc1cccc(NCc2nnc(SCC(=O)NC3CCS(=O)(=O)C3)n2C2CCCCC2)c1` (stereo not drawn) was 10.3%; that for `Cc1ccc(CN2CCN(Cc3ccc4cc(F)ccc4n3)CC2CCO)o1` (stereo not drawn) was 1.19%. The value for `COc1ccc(C(=O)NCC(=O)OCn2nnc3ccccc3c2=O)cc1OC` was 7.45%. As to `Cc1cccc2c1NC(C)CC2C.Cl` (stereo not drawn), the “hERG current change (%, negative = inhibition) at 1uM” value is 8.68%. Consider `CC(=O)NC(=S)NNC(=O)CCc1ccccc1`, for which the “hERG current change (%, negative = inhibition) at 1uM” value was found to be 6.91%. To `Cc1cccc2cc(COC(=O)c3ccccc3)c(=O)[nH]c12` belongs 6.77%; to `COc1ccc(NC(=O)N(C2CCCCC2)C(C)c2ccco2)c(OC)c1` (stereo not drawn), 13.4%; to `CCCS(=O)(=O)N1CCc2ccc(NC(=O)c3ccccc3Cl)cc2C1`, 12.1%. To `Cc1ccccc1NC(=O)Cc1nc(COC(=O)c2cccc(O)c2)cs1` belongs 10.5%; to `O=c1oc(Cl)c(Cl)c2ccccc12`, 16.6%; to `CCc1c(-c2ccccc2)nc2ccccc2c1C(=O)N1CCC2(CC1)OCCO2`, 6.15%.

With `COC(=O)C1CCN(c2cc(Cl)nc(N)n2)CC1`, the “hERG current change (%, negative = inhibition) at 1uM” value is 5.9%.

`COC(=O)c1sccc1NS(=O)(=O)c1ccc(F)cc1F`: the “hERG current change (%, negative = inhibition) at 1uM” value came out at 5.34%. To `CCc1ccc(Nc2cnn(-c3nc4ccccc4s3)c(=O)c2Cl)cc1` belongs 9.7%. On to `CN1C(CC(=O)Nc2ccc(Cl)cc2Cl)c2ccccc2CC1(C)C` (stereo not drawn), for which the “hERG current change (%, negative = inhibition) at 1uM” value came to 0.404%.

For the compound `S=C(Cc1ccc(Cl)cc1)N1CCOCC1`, the “hERG current change (%, negative = inhibition) at 1uM” value stood at 7.88%.

Take `Cn1cc(-c2ccccc2C(N)=O)c(=O)c2cc(Cl)ccc21`: the “hERG current change (%, negative = inhibition) at 1uM” value is listed as 8.57%.

For `OCCN1CCOCCN(CCO)CCOCC1`, the “hERG current change (%, negative = inhibition) at 1uM” value was 10.6%. Take `COc1ccc(C(=O)NC(CC(C)C)C(=O)O)cc1OC` (stereo not drawn): the “hERG current change (%, negative = inhibition) at 1uM” value is given as 9.19%.

For the compound `COc1cccc(NC(=O)c2ccccc2F)c1`, the “hERG current change (%, negative = inhibition) at 1uM” value is on record as -4.2%. With `CC(=O)c1cccc(N=Cc2c(O)ccc3ccccc23)c1`, the “hERG current change (%, negative = inhibition) at 1uM” value amounted to 7.4%. As to `CCCCOC(=O)CCn1c(=S)oc2ccccc21`, the “hERG current change (%, negative = inhibition) at 1uM” value is -11.5%. For the compound `O=C(NCC(O)CO)c1ccc2[nH]c3ccccc3c2c1` (stereo not drawn), the “hERG current change (%, negative = inhibition) at 1uM” value stood at 15.2%. On to `CC(=O)c1cc(C#N)c(N2CC(C)OC(C)C2)nc1C` (stereo not drawn), for which the “hERG current change (%, negative = inhibition) at 1uM” value came out at 3%. Take `Cc1cc(C(=O)CN2C(=O)C(=O)N(CC(C)C)C2=O)c(C)n1C1CC1`: the “hERG current change (%, negative = inhibition) at 1uM” value was -5.82%. To `CN(Cc1ccccc1F)C(=O)CN1c2cccc3cccc(c23)S1(=O)=O` belongs 20.9%; to `CCC(C)Nc1nc(N)c([N+](=O)[O-])c(NCc2ccccc2)n1` (stereo not drawn), 15.3%; to `O=C(c1cc(COc2ccc(F)cc2Cl)on1)N1CCc2sccc2C1`, 14.6%. Turning to `CC(=O)Nc1ccc(NC(=O)C(C)OC(=O)CNS(=O)(=O)/C=C/c2ccc(C)cc2)cc1` (stereo not drawn), the “hERG current change (%, negative = inhibition) at 1uM” value is 14.8%. To `O=C(Nc1ccc(S(=O)(=O)NCC2CCCO2)cc1)C1CC(=O)N(c2ccccc2)C1` (stereo not drawn) belongs 8.52%; to `O=C(CSC1=NS(=O)(=O)c2cc(F)ccc2N1)NCc1ccccc1Cl`, 10.9%.

Values taken from publication PMC4336329 (PLoS ONE, 2015).
